Paper PMC6919601, “Identification of Plasmodium dipeptidyl aminopeptidase allosteric inhibitors by high throughput screening” (PLoS ONE, 2019)
Where “and” joins values, the source holds several entries; their conditions need not be identical. Equal entries are not always repeated. The whole screen tested about 110,000 compounds, of which about 230 (0.21%) showed an effect of 50% or more. The list shows a part of the results.

The molecules below were run against DPAP1 (Plasmodium falciparum, UniProt Q8IIJ9) (assay: primary screen, percent inhibition; read by cleavage of a fluorogenic dipeptide substrate; higher = more effect of the substance).
Chain of DPAP1 (Q8IIJ9 whole entry, looked up): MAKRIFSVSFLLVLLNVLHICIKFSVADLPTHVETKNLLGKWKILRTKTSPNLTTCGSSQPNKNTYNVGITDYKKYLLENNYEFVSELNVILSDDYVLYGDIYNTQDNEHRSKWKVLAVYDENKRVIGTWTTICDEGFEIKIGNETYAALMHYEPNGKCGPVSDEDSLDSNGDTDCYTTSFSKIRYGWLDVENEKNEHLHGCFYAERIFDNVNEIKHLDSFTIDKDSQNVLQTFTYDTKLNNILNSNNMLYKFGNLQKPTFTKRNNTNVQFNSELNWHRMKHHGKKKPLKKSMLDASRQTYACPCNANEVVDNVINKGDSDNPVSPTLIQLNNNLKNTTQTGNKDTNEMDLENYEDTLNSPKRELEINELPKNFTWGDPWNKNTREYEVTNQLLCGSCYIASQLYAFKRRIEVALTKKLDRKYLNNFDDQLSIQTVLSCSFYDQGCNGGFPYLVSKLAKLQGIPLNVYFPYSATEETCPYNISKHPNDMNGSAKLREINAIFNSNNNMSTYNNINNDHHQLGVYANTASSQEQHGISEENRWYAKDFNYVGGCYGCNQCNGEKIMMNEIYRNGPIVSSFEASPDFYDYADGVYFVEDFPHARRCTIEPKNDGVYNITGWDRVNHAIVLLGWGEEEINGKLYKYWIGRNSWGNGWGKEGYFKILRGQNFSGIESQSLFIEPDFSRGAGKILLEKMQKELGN
Design: species or system P. falciparum D10 trophozoite lysates; single well
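Further: 30 min substrate incubation versus DMSO and 10 µM JCP410 controls.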

| SMILES | % Inhibition @ 10 uM |
| --- | --- |
| NC(=O)C1CCN(c2cnnc3c(Cl)cccc23)CC1 | -1.42% |
| CCOC(=O)N1CCN(C(=O)C2CC(c3ccc(F)cc3)=NO2)CC1 (centres unmarked) | 2.85% |
| Cc1nn(-c2ccccc2)c(C)c1/C=N/n1cnnc1S | 21.5% |
| CC(C)C[C@H](NC(=O)c1ccc(-c2csc(Nc3ccncc3)n2)cc1)C(=O)NCCN1CCOCC1 | -1.41% |
| Cc1c(O)nc(Nc2nc(C)c3ccccc3n2)nc1O | 2.3% |
| COc1cccc(C2=N/C(=C\c3ccc(Cl)cc3Cl)C(=O)O2)c1 | -5.03% |
| Brc1cc2c(cc1CN1CCc3ccccc3C1)OCO2 | 5.45% |
| Cc1ccc2c(CNCc3ccccc3C)c(C(=O)O)n(Cc3ccccc3F)c2c1 | 6.57% |
| O=C(c1ccc(S(=O)(=O)N2CCOCC2)cc1)N1CCN(Cc2ccc3c(c2)OCO3)CC1 | 1.02% |
| CCOc1ccc2sc(/C(C)=N/CCc3ccccc3)c(O)c2c1 | -3.9% |
| Cc1ccc2[nH]cc(C3CCCCC3=O)c2c1 (centres unmarked) | -7.16% |
| CC1CCCN(C(=O)c2cccc(Cl)c2)C1 (centres unmarked) | -5.2% |
| O=C(NCCCN1CCOCC1)c1cc(-c2ccc3c(c2)OCO3)nc2ccccc12 | 2.32% |
| Clc1nc(-c2ccccc2)cc(-c2cnc(N3CCCCC3)nc2N2CCCCC2)n1 | -1.5% |
| Cc1cc(C)c2nc(N3CCCC(C(=O)NCCCN4CCOCC4)C3)sc2c1 (centres unmarked) | -3.35% |
| CN(C)CCCN1Cc2ccccc2Sc2ccccc21 | -2.29% |
| O=C(NCc1ccc2c(c1)OCO2)c1ccc2c(Cl)c3c(nc2c1)CCCC3 | 2.23% |
| COc1cccc(C2CC(=O)Nc3c2c(O)nc2ncnn32)c1 (centres unmarked) | -0.222% |
| CCOc1ccc(/C=C2/SC(=O)N(C(C)CC)C2=O)cc1OC (centres unmarked) | -1.44% |
| CCN1CCN(C2=NC(=O)/C(=C/c3ccc(OC)cc3OC)S2)CC1 | -3.41% |
| Cc1cccc(-n2c(C)nc3sccc3c2=O)c1 | -5.13% |
| CCOc1ccc(C2N3CCCN23)cc1 (centres unmarked) | -4.74% |
| COc1ccc(C2Nc3ccccc3C(=O)N2Cc2ccccc2)cc1 (centres unmarked) | 2.01% |
| CC(C)c1ccccc1OCC(=O)Nc1ccccc1C(N)=O | -3.26% |
| Cc1ccc(C(=O)Nc2ccc(Br)cc2)cc1S(=O)(=O)N1CCCCCC1 | -1.96% |
| Cc1ccc(S(=O)(=O)N(CC(=O)Nc2ccc3c(c2)OCO3)C2CCCCC2)cc1 | -6.58% |

| SMILES | % Inhibition @ 10 uM |
| --- | --- |
| CCN(CC)CP1(=O)OCC(C)(C)CO1 | 1.29% |
| COCCNC(=O)CCCn1nc(C)c2c(C)n(-c3ccc(C)cc3)nc2c1=O | -1.21% |
| CCN(CC)C(=O)N1CCN(c2ccc(Nc3ccnc4cc5ccccc5cc34)cc2)CC1 | 10.7% |
| COc1ccc(CC(=O)Nc2ccc3c(c2)CCC3)cc1OC | 4.49% |
| COc1ccc(CNC(=O)Cn2ncc3c4ccccc4n(Cc4ccc(F)cc4)c3c2=O)cc1 | -3.35% |
| COc1cc(CNC2CCCc3ccccc32)cc(OC)c1OC (centres unmarked) | 22.4% |
| Clc1cccc2c(CN3CCOCC3)csc12 | -2.97% |
| Cc1nnc(SCC(=O)NCCc2ccco2)c2nn(-c3ccc(Cl)cc3)c(C)c12 | 6.6% |
| Cc1ccccc1CN1CC(C)OC(C)C1 (centres unmarked) | -0.636% |
| O=C(COc1ccc([N+](=O)[O-])cc1)Oc1ccc(Br)cc1 | 1.33% |
| O=C(NCc1cc(Br)cc(C(=O)O)c1O)c1ccccc1 | -0.415% |
| c1ccc2[nH]c(C3CCNCC3)nc2c1 | -4.69% |
| CCOC(=O)c1c(C)[nH]c(C)c1S(=O)(=O)N1CCC(C(=O)NCc2ccccn2)CC1 | -0.166% |
| Oc1cccc(/C=N/c2cccc(Br)c2)c1 | 1.08% |
| Cn1cccc1Cc1nnc(SCC(=O)NCCc2ccccc2)n1-c1ccc(F)cc1 | -3.95% |
| CCOc1ccc2nc(N3CCCC(C(=O)NCCCN(C)C4CCCCC4)C3)sc2c1 (centres unmarked) | -1.8% |
| CC(C)OC(=O)Nc1ccc2c(c1)N(C(=O)CCN1CCOCC1)c1ccccc1CC2 | -8.03% |
| CC(NC(=O)Cn1c(=O)c2cccn2c2cccnc21)c1ccc2c(c1)OCCO2 (centres unmarked) | 1.53% |
| O=C1C2CC=CCC2C(=O)N1c1ccc(Cc2ccncc2)cc1 (centres unmarked) | -19.8% |
| COc1cc(CN2CCSCC2)cc(Br)c1O | -0.127% |
| O=C(CNC(=O)c1ccccc1)NC1(C(=O)NC2CCCC2)CCCCC1 | -0.795% |
| c1ccc(Oc2ccc3ccccc3n2)cc1 | 2.59% |
| CC(C)c1ccc(N(CC(=O)Nc2ccc(Br)cc2)S(C)(=O)=O)cc1 | 0.793% |
| COc1ccc(Cl)cc1C(=O)NCc1cnn(C)c1C | -5.34% |
| O=C(/C=C/c1ccccc1)NC1CC1 | 2.8% |
| CC(C)(c1ccccc1)c1ccc(OCC(=O)Nc2nccs2)cc1 | -6.6% |

| SMILES | % Inhibition @ 10 uM |
| --- | --- |
| COc1ccc(Br)cc1CNC(=O)c1ccc(-n2cnc3cccnc32)cc1 | 1.48% |
| CCOC(=O)N1CCC(NCCCOC)CC1 | -0.414% |
| COc1cc(/C=C2/OC(c3ccc(F)cc3)=NC2=O)cc(OC)c1OC | -1.33% |
| CS(=O)(=O)c1ccc2nc(NC(=O)c3cc4ccccc4o3)sc2c1 | -1.47% |
| O=S(=O)(Cc1ccccc1)NCC1CCCO1 (centres unmarked) | -8.99% |
| COc1cc(C)c(-n2cnnn2)cc1C(C)C | 8.27% |
| CC(=O)CC1(O)C(=O)N(CN2CCOCC2)c2ccccc21 (centres unmarked) | -4.08% |
| CC(C)/C=C(/C(=O)c1ccc(Cl)cc1Cl)n1cncn1 | -1.71% |
| CCc1cc2c(C)cc(=O)oc2c2c1OCC2=O | -3.51% |
| COc1ccc(-c2cc(C(=O)N3CCN(C(=O)c4ccco4)CC3)[nH]n2)cc1 | -3.1% |
| CC1=C(C#N)C(Nc2cc(C)ccn2)(C(F)(F)F)C(=O)N1 (centres unmarked) | 6.64% |
| CCC1CCCCN1CCCNc1ncnc2onc(C)c12 (centres unmarked) | -5.36% |
| CC1=CSC2=NC(=O)/C(=C\c3cccn3-c3ccccc3)C(=N)N12 | 1.9% |
| Cc1c(C(=O)C(F)(F)F)c2ccccc2n1CC(=O)N1CCCCCC1 | -0.169% |
| CCCn1c2ccccc2c2cnn(CC(=O)Nc3cc(C)on3)c(=O)c21 | 2.82% |
| Cc1ccc(CCNC(=O)c2cc(S(=O)(=O)N3CCCCC3)c[nH]2)cc1 | -4.37% |
| CCS(=O)(=O)c1c(S(=O)(=O)CC)c2ccc(C(C)=O)cn2c1C(=O)c1ccc(C)cc1C | 5.24% |
| CC(C)C(=O)n1nc(-c2cccnc2)nc1NCc1ccc(F)cc1 | 2.21% |
| CCN1CCN(CCNC(=O)CCN2N=C(c3ccc(OC)cc3)CCC2=O)CC1 | -6.4% |
| CC(=O)c1ccc(NC(=O)c2ccc(C(F)(F)F)cc2)cc1 | -8.73% |
| O=C(NCC1CCCO1)c1cccc(NC(=O)c2ccccc2)c1 (centres unmarked) | -3.33% |
| CCc1ccc(C(=O)NC2=NC(=O)CC(c3ccc(OC)c(OC)c3OC)N2)cc1 (centres unmarked) | -0.601% |
| O=C(CN1C(=O)S/C(=C/c2cccs2)C1=O)Nc1ccccc1 | -1.22% |
| Cc1ccc(C)c(S(=O)(=O)c2nnn3c2nc(NCc2ccc(F)cc2)c2sccc23)c1 | -4.34% |
| CCn1nc(C)c2c(C(F)(F)C(F)(F)F)cc(=O)n(CC(=O)NCc3ccc(OC)cc3)c21 | -0.434% |
| COc1ccc(S(=O)(=O)NCc2ccc(C(=O)NCCN(CC(C)C)CC(C)C)cc2)cc1 | -1.54% |

| SMILES | % Inhibition @ 10 uM |
| --- | --- |
| CS(=O)(=O)N1CCC(C(=O)Nc2c(F)cccc2F)CC1 | -13.4% |
| CCN(CC)C(=O)C1CCCN(Cc2ccc(Cl)cc2Cl)C1 (centres unmarked) | -5.68% |
| Cc1c(C(=O)NCCC2=CCCCC2)oc2ccc(S(=O)(=O)N3CCC4(CC3)OCCO4)cc12 | -2.49% |
| Cc1ccc(S(=O)(=O)N(C)c2ccc(C(=O)NCC3CCCO3)cc2)cc1 (centres unmarked) | -2.21% |
| CCCCOC(=O)Nc1ccc(S(=O)(=O)Nc2nc(C)cc(C)n2)cc1 | 3.86% |
| COCCNC(=O)CCCn1sc2ccccc2c1=O | -2.84% |
| CC(C)CC(NC(=O)/C=C/c1cccnc1)C(=O)NCC#N (centres unmarked) | 5.05% |
| CN1CCN(CCCNC(=O)c2sc3ccccc3c2Cl)CC1 | -2.42% |
| CC1(c2ccncc2)NC(=O)NC1=O (centres unmarked) | -2.03% |
| Cc1cc(OCC(=O)N2CCCCC2)ccc1Br | -2.36% |
| O=C(NCCCCNC(=O)c1cccc(Cl)c1)c1cccc(Cl)c1 | -3.45% |
| CCc1ccccc1S(=O)(=O)Cc1ccc(C(=O)NCc2cccs2)o1 | -1.51% |
| CC[C@H](NC(=O)[C@H](CC(C)C)NC(=O)OCc1ccccc1)C(=O)CS(=O)(=O)c1ccccc1 | 8.71% |
| COCCCNC(=O)NC(C)c1c(-n2cccc2)sc(C)c1C (centres unmarked) | -3.34% |
| CCCO/C(O)=C1\C(C)=NC2=C(C(=O)CCC2)C1c1cccc(F)c1 (centres unmarked) | -2.87% |
| COc1cc(C2=N/C(=C3/OC(=O)c4ccccc43)C(=O)O2)cc(OC)c1OC | 4.54% |
| COc1ccc(Cl)cc1NS(=O)(=O)c1ccc(F)cc1 | 2.41% |
| CCOc1ccc(CC/N=c2/c(-c3ccccc3)c(O)c2=O)cc1OCC | -0.86% |
| Cc1ccc(Nc2nc(-c3ccc(S(=O)(=O)N4CCOCC4)cc3)cs2)cc1Cl | -0.693% and 0.219% |
| O=C(O)c1ccc(Oc2ccc([N+](=O)[O-])cc2)cc1 | 3.16% |
| O=C(O)C(Cc1ccccc1)N1C(=O)c2cccc3cccc(c23)C1=O (centres unmarked) | 0.823% |
| CCC(C)NC(=O)c1ccc(-c2nc(CS(=O)c3ccccc3)c(C)o2)cc1 (centres unmarked) | 3.14% |
| O=C1NC(=O)/C(=C/c2cc3ccccc3[nH]2)N1 | 2.78% |
